What all share (test): Primary Screen for Target Class Profiling of Small Molecule Inhibitors of Methyltransferases
In experiment [1] the target is Glycine N-methyltransferase (Homo sapiens) (UniProt Q14749). Particulars: purified enzyme, MTase-Glo SAH luminescence; measured here: GNMT inhibition; at 40 µM; stronger effect = lower value. Put shortly: (§1)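 Each enzyme was reacted with SAM and its substrate, with compounds tested once at 40 uM; SAH formed was read by MTase-Glo luminescence.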
In experiment [2] the target is Guanidinoacetate N-methyltransferase (Homo sapiens) (UniProt Q14353). Particulars: purified enzyme, MTase-Glo SAH luminescence; measured here: GAMT inhibition; at 40 µM; stronger effect = lower value. Put shortly:
as §1

The target of experiment [3] is Histamine N-methyltransferase (Homo sapiens) (UniProt P50135). As to conditions: purified enzyme, MTase-Glo SAH luminescence; measured here: HNMT inhibition; at 40 µM; stronger effect = lower value. Put shortly: as §1
Experiment [4] deals with Nicotinamide N-methyltransferase (Homo sapiens) (UniProt P40261). As to conditions: purified enzyme, MTase-Glo SAH luminescence; measured here: NNMT inhibition; at 40 µM; stronger effect = lower value. Put shortly: as §1
Experiment [5] concerns the target Phenylethanolamine N-methyltransferase (Homo sapiens) (UniProt P11086). Particulars: purified enzyme, MTase-Glo SAH luminescence; measured here: PNMT inhibition; at 40 µM; stronger effect = lower value. Put shortly:
as §1

From PubChem BioAssay AID1745853 (National Center for Advancing Translational Sciences (NCATS), 2022) come the findings set out here.

The structures appear in SMILES notation. Some of the results follow. Shown are side measurements of this screen, not its main read-out; they come without a call.
On the % scale 0 is the no-effect control and ±100 the full control effect.

Consider `Cc1cnc(CCNC(=O)Cc2ccncc2)n1CC1CC1`, for which the activity change, negative = inhibition in experiment [1] is -2.84%; in experiment [2], -3.94%; in experiment [3], -19.9%; in experiment [4], -8.49%; in experiment [5] it was -4.32%.
In the case of `CN(Cc1nccs1)C(=O)CC(c1ccccc1)c1cccc(Cl)c1` (stereo not given), the activity change, negative = inhibition was -3.85% in experiment [1]; -0.002% in experiment [2]; 0.507% in experiment [3]; -12% in experiment [4]; -0.657% in experiment [5].
Regarding `COc1ccc2c(c1)CC(NS(=O)(=O)c1ccc(C)cc1)CO2` (stereo not given), the activity change, negative = inhibition in experiment [1] was -11.1%; in experiment [2], -2.28%; in experiment [3], -2.44%; in experiment [4], -4.54%; in experiment [5], -3.5%.
For `CC1=C(C)C(=O)OC(C(C)C2C(O)CC3C4C5OC5C5(O)CC(OC6OC(CO)C(O)C(O)C6O)CC(O)C5(C)C4CCC32C)C1` (stereo not given), in that order: 0%, -1.27%, 2.62%, -14.4% and 2.5%.
For `CCOc1ccc(CN2C(=O)c3nc4ccccc4n3CC2(C)C(=O)NC2CCCC(C)C2C)cc1` (stereo not given), the activity change, negative = inhibition in experiment [1] was -5.63%; in experiment [2] it was 0%; in experiment [3], -2.6%; in experiment [4] it was -3.79%; in experiment [5], -1.15%.
On the same counts, the results for `COc1cccc(CNC(=O)c2cc3n(n2)CC(C)(C(=O)NCc2ccc(F)cc2)N(C)C3=O)c1` (stereo not given) are 6.05%, 4.83%, 3.61%, 1.4% and 1.25%.
For `CC(C)=CCC/C(C)=C/CC/C(C)=C/CC[C@]1(C)CCc2cc(O)cc(C)c2O1`, in that order: 0%, -17.2%, 0.451%, -24.2% and -2.22%.
Regarding `Cc1noc(C)c1[S+](=O)([O-])N1CCn2cc(C(=O)Nc3ccc(Cl)cc3Cl)nc2C1`, the activity change, negative = inhibition in experiment [1] was -4.09%; in experiment [2], -5.87%; in experiment [3], -2.86%; in experiment [4] it was -5.29%; in experiment [5] it was -9.66%.
With `O=C(Cn1ccc2cc(S(=O)(=O)N3CCCC3)ccc21)NCCc1ccccc1`, the activity change, negative = inhibition in experiment [1] is -1.1%; in experiment [2], 2.88%; in experiment [3], -4.21%; in experiment [4], -3.59%; in experiment [5] it was -12.6%.
Consider `CCOc1ccccc1C(=O)N1CCC(c2n[nH]c(=O)n2Cc2ccc(OC)cc2)CC1`, for which the activity change, negative = inhibition is -3.83% in experiment [1]; -1.41% in experiment [2]; -13.1% in experiment [3]; -5.65% in experiment [4]; -0.011% in experiment [5].
Turning to `CC1(C(=O)NC2CCCCCC2)Cn2c(ccc2-c2ccco2)C(=O)N1CCc1cccs1` (stereo not given), the activity change, negative = inhibition is 0.738% in experiment [1]; 0% in experiment [2]; 5.45% in experiment [3]; -1.2% in experiment [4]; 1.87% in experiment [5].
Turning to `Cn1c(=O)c2ccccc2n2c(CCC(=O)NCCc3ccccc3)nnc12`, the activity change, negative = inhibition is 0.495% in experiment [1]; -0.572% in experiment [2]; -3.06% in experiment [3]; -12.9% in experiment [4]; -1.74% in experiment [5].
`CC(=O)OC1C(O)C2C(C)C3=CC(=O)OC3(O)CC2C2(C)CCCC(C)(CO)C12` (stereo not given): the activity change, negative = inhibition in experiment [1] is 0%; in experiment [2], 3.85%; in experiment [3] it was 6.86%; in experiment [4], -5.84%; in experiment [5], 7.27%.
As for `NC(=O)c1ccccc1`, the activity change, negative = inhibition is -9.82% in experiment [1]; 0.936% in experiment [2]; -2.13% in experiment [3]; -13.3% in experiment [4]; 5.66% in experiment [5].
Turning to `O=c1c2ccccc2n2c(-c3ccc(Cl)cc3)nnc2n1Cc1ccc(F)cc1`, the activity change, negative = inhibition is -10.4% in experiment [1]; 0.643% in experiment [2]; -4.29% in experiment [3]; -10.2% in experiment [4]; -5.16% in experiment [5].
On to `CC1(C)CC[C@]2(C(=O)O[C@@H]3O[C@H](CO)[C@@H](O)[C@H](O)[C@H]3O)CC[C@]3(C)C(=CCC4[C@@]5(C)CC[C@H](O[C@@H]6O[C@H](C(=O)O)[C@@H](O)[C@H](O)[C@H]6O)C(C)(C)C5CC[C@]43C)C2C1` (stereo not given in full), for which the activity change, negative = inhibition is 4.03% in experiment [1]; 5.99% in experiment [2]; 8.73% in experiment [3]; -6.96% in experiment [4]; 3.08% in experiment [5].
Turning to `O=C(c1ccccc1)c1ccc2nc(NC(=O)c3csc(C4CCN(c5ncnc6ccsc56)CC4)n3)[nH]c2c1`, the activity change, negative = inhibition in experiment [1] was -0.231%; in experiment [2] it was -24%; in experiment [3], 4.12%; in experiment [4], -65.9%; in experiment [5], -36.8%.
On the same counts, the results for `CCc1ccccc1NC(=O)Cn1nc2n(CC(C)C)c(=O)c3ccc(C(=O)NC(C)CC)cc3n2c1=O` (stereo not given) are -5.15%, 1.7%, -3.93%, -2.44% and -0.611%.
For the compound `CC(C)CCNC(=O)C1(C)Cn2nc(C(=O)N3CCN(C4CCCCC4)CC3)cc2C(=O)N1C` (stereo not given), the activity change, negative = inhibition was found to be 10.4% in experiment [1]; 0% in experiment [2]; 6.74% in experiment [3]; 10.1% in experiment [4]; 5.28% in experiment [5].
Take `O=C(Nc1ncc(SCCN2CCCC2)s1)C1(c2ccc(S(=O)(=O)C3CC3)cc2)CC1C1CCCCC1` (stereo not given): the activity change, negative = inhibition in experiment [1] was 3.71%; in experiment [2] it was -6.67%; in experiment [3], -13.2%; in experiment [4] it was -35.3%; in experiment [5], -11.1%.
Take `Cc1ccc(N2C(=O)c3ccccc3CC2(C)C(=O)NCc2ccccc2C)cc1` (stereo not given): the activity change, negative = inhibition came to 3.07% in experiment [1]; 1.1% in experiment [2]; 5.18% in experiment [3]; 1.37% in experiment [4]; 4.39% in experiment [5].
On the same counts, the results for `CC1(C(=O)NCc2ccccc2)Cn2c(ccc2-c2ccco2)C(=O)N1Cc1ccccc1` (stereo not given) are -1.28%, 3.46%, 2.69%, -6.7% and -3.66%.
On to `CCn1ccnc1CN(C)Cc1cccc(OCC(O)CN(C)C2CCCCC2)c1` (stereo not given), for which the activity change, negative = inhibition in experiment [1] is -2.5%; in experiment [2], -3.67%; in experiment [3], -19.7%; in experiment [4], -11.4%; in experiment [5], -7.08%.
As to `CC(CN(C)C)CN1c2ccccc2CCc2ccccc21` (stereo not given), the activity change, negative = inhibition is -1.59% in experiment [1]; 10.4% in experiment [2]; -5.03% in experiment [3]; -9.93% in experiment [4]; 4.86% in experiment [5].
Consider `Cc1ccc(NC(=O)Cn2c(N3CCN(c4ccccc4)CC3)nc(C)cc2=O)cc1`, for which the activity change, negative = inhibition is -4.57% in experiment [1]; -3.88% in experiment [2]; -2.25% in experiment [3]; -3.19% in experiment [4]; -8.01% in experiment [5].
Turning to `Cn1c(N2CCCCS2(=O)=O)nc(C(=O)NCc2ccc(F)cc2)c(O)c1=O`, the activity change, negative = inhibition was -3.14% in experiment [1]; -10.2% in experiment [2]; -1.79% in experiment [3]; -22.1% in experiment [4]; -6.27% in experiment [5].
Consider `COc1ccc(NC(=O)Cn2c(=O)oc3cc(S(=O)(=O)NC4CCCC4)ccc32)cc1OC`, for which the activity change, negative = inhibition is -4.65% in experiment [1]; -0.929% in experiment [2]; -2.7% in experiment [3]; -8.48% in experiment [4]; -27% in experiment [5].
For `CCC(C)NC(=O)c1ccc2c(=O)n(CCC(C)C)c3nn(CC(=O)Nc4ccccc4C)c(=O)n3c2c1` (stereo not given), in that order: 0.891%, 2.06%, -0.577%, 0.072% and -0.728%.
Consider `O=c1c2ccccc2n2c(SCc3ccccc3F)nnc2n1Cc1ccc(F)cc1`, for which the activity change, negative = inhibition is -3.6% in experiment [1]; 0.554% in experiment [2]; -2.15% in experiment [3]; -12.2% in experiment [4]; -2.07% in experiment [5].
